Among all 220,000 compounds or so, about 16,000 (7.3%) were called active. Inconclusive results, whose numbers are uncertain, are shown with a selection of clear calls. The call rests on the fitted dose curve; in most records, active means well fitted inhibition curve with a large enough effect (not every such curve was filed as active); inconclusive means small, poorly fitted or top-dose-only effect, or another doubt; inactive means no such curve, though single readings can be large or run the other way. Potencies of inconclusive entries are doubtful fits and often do not repeat.
target: Aldehyde dehydrogenase 1A1 (Homo sapiens) (UniProt P00352); experiment: qHTS Assay for Inhibitors of Aldehyde Dehydrogenase 1 (ALDH1A1); conditions: Purified ALDH1A1, NADH fluorescence, propionaldehyde substrate; series mostly up to 75.3 µM
Potency means the concentration at half of the fitted maximal effect; tags describe the fitted curve by direction and shape.

Chain of UniProt P00352 (P00352 whole entry, looked up): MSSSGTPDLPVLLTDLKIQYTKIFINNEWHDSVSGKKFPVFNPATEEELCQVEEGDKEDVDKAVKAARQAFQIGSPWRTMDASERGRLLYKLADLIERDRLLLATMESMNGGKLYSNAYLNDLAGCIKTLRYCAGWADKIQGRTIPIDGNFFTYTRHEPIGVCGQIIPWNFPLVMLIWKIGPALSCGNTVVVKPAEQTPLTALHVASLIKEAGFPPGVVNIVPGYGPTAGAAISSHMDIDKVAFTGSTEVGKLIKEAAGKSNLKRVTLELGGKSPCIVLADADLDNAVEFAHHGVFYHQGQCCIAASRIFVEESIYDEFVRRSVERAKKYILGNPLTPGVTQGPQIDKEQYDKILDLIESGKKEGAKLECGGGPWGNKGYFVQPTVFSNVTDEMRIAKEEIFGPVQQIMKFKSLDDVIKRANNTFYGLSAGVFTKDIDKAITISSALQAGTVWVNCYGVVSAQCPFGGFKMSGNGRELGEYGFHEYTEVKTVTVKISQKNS

Potency, inconclusive:
CCOC(=O)C1CCCN(Cc2cc(Br)c(OC)cc2OC)C1 (stereo not given) 39.8 µM [inhibitor, single point]
COc1ccc(/C=N/NC(=O)c2cc(-c3ccc(Cl)cc3)n[nH]2)cc1OC 39.8 µM [inhibitor, single point]
CNC(=S)N(CCc1c(C)[nH]c2ccc(Cl)cc12)Cc1cccs1 31.6 µM [inhibitor, single point]
CCOC(=O)c1cc(C(=O)NC(C)c2ccccc2)c(C)[nH]c1=O (stereo not given) 39.8 µM [inhibitor, single point]
CC1CCCCN1CCNC(=O)c1ccc2c(=O)n(CCc3ccccc3)c(=O)[nH]c2c1 (stereo not given) 31.6 µM [inhibitor, single point]
Cc1cc(C(=O)OCCO)c(C#N)c(N)n1 25.1 µM [inhibitor, partial curve]
Cc1ccc(N(CCC#N)C(=O)CSc2ccc3c(c2)OCCO3)cc1 15.8 µM [inhibitor, partial curve]
N#Cc1nc(COc2ccc(Cl)cc2)oc1N1CCCCCC1 8.91 µM [inhibitor, partial curve]
N#CCCN(C1CCCCC1)S(=O)(=O)c1cccc2nsnc12 25.1 µM [inhibitor, single point]
Cn1nnnc1SCC(=O)c1ccc2c(c1)OCCO2 39.8 µM [inhibitor, single point]
COCCNC(=O)C(c1ccc(C)o1)N(C(=O)c1snc(C(N)=O)c1N)c1ccc(C)cc1 (stereo not given) 14.1 µM [inhibitor, partial curve]
Cc1cccc(NC(=S)N/N=C/C(C)c2ccccc2)c1C (stereo not given) 39.8 µM [inhibitor, single point]
O=C(COC(=O)C12CC3CC(CC(C3)C1)C2)Nc1ccccc1F 25.1 µM [inhibitor, single point]
CCN(CC)c1ccc2c(C)c(CO)c(=O)oc2c1 28.2 µM [inhibitor, partial curve]
S=c1[nH]c2ccccc2n2cccc12 39.8 µM [inhibitor, single point]
CN(C(=O)c1cc2sccc2n1C)C1CCCCC1 17.8 µM [inhibitor, partial curve]
C=CCOc1ccc2oc(=O)cc(C)c2c1 39.8 µM [inhibitor, single point]
CC(=O)c1ccc(-c2nnc(CCC(=O)N(C)Cc3c(C)nc4ccccn34)o2)s1 39.8 µM [inhibitor, single point]
COc1ccc(-c2c(=O)n(OCc3ccccc3[N+](=O)[O-])c3ccccc3[n+]2[O-])c(OC)c1 39.8 µM [inhibitor, single point]
CC(C)Cc1nc(SCC(=O)NCc2ccccc2)n[nH]1 17.8 µM [inhibitor, partial curve]
COc1ccccc1-c1cc(Nc2ccc(F)cc2)ncn1 28.2 µM [inhibitor, single point]
CCN(CC)c1ccc(NC(=O)CSc2nc3ccccc3c(=O)n2-c2cc(S(=O)(=O)N(C)C)ccc2C)cc1 39.8 µM [inhibitor, single point]
Cc1ccc(-n2c(SCC(=O)N3CC(=O)Nc4ccccc43)nc3ccccc3c2=O)cc1 10 µM [inhibitor, partial curve]
Cc1ccc(NC(=S)Nc2cccc(S(=O)(=O)Nc3c(C)n(C)n(-c4ccccc4)c3=O)c2)cc1 28.2 µM [inhibitor, single point]
COc1ccc(C)cc1S(=O)(=O)N(CC(=O)Nc1ccc2c(c1)OCCO2)Cc1ccccc1 39.8 µM [inhibitor, single point]

Potency, active:
O=C(CSc1nnc(CNc2ccccc2)o1)N1CCc2ccccc21 15.8 µM
O=C(NNS(=O)(=O)c1ccccc1[N+](=O)[O-])c1ccc(O)cc1 3.16 µM
O=CN1CCN(C2CC(=O)N(c3ccc4c(c3)OCO4)C2=O)CC1 (stereo not given) 12.6 µM
Cn1cnc([N+](=O)[O-])c1Sc1ccccc1 11.2 µM
C=CCn1c(N)c(C(=O)Nc2ccccc2OC)sc1=S 22.4 µM
CCC1=C/C(=C/N(C)c2ccccc2)C(=O)S1 25.1 µM
CC(C)OC(=O)c1nn2c(C(F)(F)F)cc(-c3ccc(Br)o3)nc2c1Br 17.8 µM
Cc1csc(=N)n1CC(=O)N1CCc2ccccc21 25.1 µM
COc1ccccc1Nc1nc(-c2cccs2)cs1 3.98 µM

Potency, inactive:
CCCCCCNC1=NCCS1
O=C(CN1C(=O)CSC1=O)Nc1ccc(F)c(F)c1F
CCCC1=C(C(=O)OCC)C(c2ccc(OC)c(C)c2OC)C(C#N)=C(N)O1 (stereo not given)
COc1cccc(NC(=O)c2cnsn2)c1
CCC(/C=C/C(C)C1CCC2C3CC=C4CC(O)CC[C@@]4(C)C3CC[C@@]12C)C(C)C (stereo not given in full)
CCOc1ccc(CCNC(=O)CSc2cc(=O)n(C)c3ccccc23)cc1OCC
COc1ccc(CCNC(=O)C2CC2)cc1OC
COc1ccc(N(C(=O)C(C)C)S(=O)(=O)c2ccc3c(c2)n(C)c(=O)n3C)cc1
Brc1cccc2sc(N3CCN(c4ccccc4)CC3)nc12
O=Cc1ccccc1-n1cncn1
N/C(=N\OC(=O)c1cc(Br)ccc1Cl)c1ccccn1
Cc1cccc2c(CC(=O)Nc3ccccc3)noc12
CCCC1S/C(=N/N=C/c2cccs2)NC1=O (stereo not given)
CN(c1ccccc1)S(=O)(=O)c1ccc(NC(=O)c2ccccc2)cc1
CC(=O)O[C@@]1(C(C)=O)CCC2C3CC(C)C4=CC(=O)CC[C@@]4(C)C3CC[C@]21C (stereo not given in full)
CS(=O)(=O)N(Cc1ccccc1)c1ccc(C(=O)NCC2CCCO2)cc1 (stereo not given)

Reference: PubChem BioAssay AID1030 (National Center for Advancing Translational Sciences (NCATS), 2008)
